In all, about 310,000 compounds went through this assay and about 14,000 (4.5%) showed an effect of 50% or more. Effects have a minus sign here. The list shows a part of the results.
The compounds below were run against human ether-à-go-go-related gene (hERG) potassium channel (human, UniProt Q12809) (assay: primary screen, population patch clamp on CHO cells stably expressing hERG).
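Further: peak tail current of the secondary pulse compared with the same well before compound.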

human ether-à-go-go-related gene (hERG) potassium channel, sequence (Q12809 whole entry, looked up): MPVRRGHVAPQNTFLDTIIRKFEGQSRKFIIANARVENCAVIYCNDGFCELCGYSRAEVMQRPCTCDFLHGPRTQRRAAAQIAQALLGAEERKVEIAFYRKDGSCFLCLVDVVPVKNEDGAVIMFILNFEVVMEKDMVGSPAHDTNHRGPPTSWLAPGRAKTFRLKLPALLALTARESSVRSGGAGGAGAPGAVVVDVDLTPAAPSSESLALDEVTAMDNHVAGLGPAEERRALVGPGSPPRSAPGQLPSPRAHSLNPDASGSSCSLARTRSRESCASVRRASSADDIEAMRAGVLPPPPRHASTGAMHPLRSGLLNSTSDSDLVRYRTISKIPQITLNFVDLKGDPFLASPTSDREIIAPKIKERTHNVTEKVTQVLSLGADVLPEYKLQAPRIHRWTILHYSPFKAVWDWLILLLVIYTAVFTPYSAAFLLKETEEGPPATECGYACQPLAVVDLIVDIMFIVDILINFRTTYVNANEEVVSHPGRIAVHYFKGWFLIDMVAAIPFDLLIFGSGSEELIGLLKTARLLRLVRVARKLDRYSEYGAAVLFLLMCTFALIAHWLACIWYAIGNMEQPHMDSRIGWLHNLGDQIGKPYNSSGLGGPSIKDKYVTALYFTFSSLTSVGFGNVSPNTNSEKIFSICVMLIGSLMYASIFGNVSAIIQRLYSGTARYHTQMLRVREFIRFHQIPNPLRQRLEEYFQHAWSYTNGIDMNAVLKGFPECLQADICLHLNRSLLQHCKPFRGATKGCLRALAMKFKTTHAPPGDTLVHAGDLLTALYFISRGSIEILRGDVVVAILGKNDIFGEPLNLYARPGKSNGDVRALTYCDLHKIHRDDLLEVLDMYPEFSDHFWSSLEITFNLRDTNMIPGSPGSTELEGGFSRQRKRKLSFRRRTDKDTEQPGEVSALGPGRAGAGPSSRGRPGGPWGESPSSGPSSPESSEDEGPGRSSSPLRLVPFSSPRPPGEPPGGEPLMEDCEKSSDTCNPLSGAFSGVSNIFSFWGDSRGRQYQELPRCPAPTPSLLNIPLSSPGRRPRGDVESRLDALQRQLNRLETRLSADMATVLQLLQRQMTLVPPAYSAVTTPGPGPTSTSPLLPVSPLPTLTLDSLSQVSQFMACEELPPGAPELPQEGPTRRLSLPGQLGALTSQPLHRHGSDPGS

| SMILES | hERG current change (%, negative = inhibition) at 10uM [%] |
| --- | --- |
| O=C(O)CCC(=O)N1c2ccccc2NC2=C(C(=O)CC(c3ccc(F)cc3)C2)C1c1ccc([N+](=O)[O-])o1 (centres unmarked) | 27.4 |
| O=C(COc1ccc2c(-c3ccccc3)cc(=O)oc2c1)NCC1CCC(C(=O)O)CC1 (centres unmarked) | 12 |
| O=C(NCCCn1ccnc1)C1CC(c2ccccc2Cl)=NO1 (centres unmarked) | -5.15 |
| COc1ccc(/C=C2\SC(=S)N(CC(=O)NC3C=CS(=O)(=O)C3)C2=O)cc1 (centres unmarked) | 15.1 |
| Br.CN1CCN(C(=O)Cc2ccccc2)CC1 | 19.5 |
| CCN1CCN(C(=O)C(NS(=O)(=O)c2ccc3nc(C)sc3c2)C(C)C)CC1 (centres unmarked) | 0.194 |
| CCS(=O)(=O)N1CCC(C(=O)NCc2ccc(OC)cc2OC)CC1 | 20.4 |
| CCOC(=O)c1nnn(CC(=O)Nc2cc(F)ccc2F)c1C(=O)OCC | 0.314 |
| Cc1ccccc1N1C(=O)C2ON(c3ccccc3)C(c3ccncc3)C2C1=O (centres unmarked) | -2.7 |
| NC(=O)c1nsc(C(=O)N(c2ccc(F)cc2)C(C(=O)NCC2CCCO2)c2ccc3ncccc3c2)c1N (centres unmarked) | -22.4 |
| COc1ccccc1OCc1ccc(C(=O)NC2CCCCC2)o1 | -12.5 |
| CCOc1ncccc1C(=O)OCC(=O)Nc1cc(C)ccc1C | 3.95 |
| O=C(Nc1ccc2c(c1)OCCO2)c1ccccc1F | 1.64 |
| C=CCOc1cccc(C2/C(=C(/O)c3ccc(F)cc3)C(=O)C(=O)N2CCN2CCOCC2)c1 (centres unmarked) | 14.7 |
| N#CC(C#N)=c1ccc2c(c1)N1C(c3ccccc3)=CC(c3ccccc3)C3CCCCC31N=2 (centres unmarked) | 6.61 |
| CC1(C(O)(C#CC[N+]2(C)CCCCC2)c2ccccc2)CCCC1.[I-] (centres unmarked) | 29.6 |
| CCCCOc1ccc(C(=O)NCC(=O)NCCCn2nc(C)cc2C)cc1 | -17 |
| CCOc1cccc(-c2nnc(SCC(=O)Nc3cc(C)ccc3OC)n2N)c1 | -16.9 |
| Cc1nn(-c2ccccc2)c2sc(C(=O)c3c(N)n(C)c(=O)n(C)c3=O)cc12 | -2.81 |
| Nc1nnnn1CC(=O)N/N=C/c1cc([N+](=O)[O-])ccc1Cl | 25.5 |
| COc1ccccc1-n1c(SCC(N)=O)nc2c(c1=O)SCC2 | 5.57 |
| Cc1ccc(NC(=O)CCc2nnc(SCC(=O)Nc3ccccc3C)n2C)cc1Cl | 14.5 |
| CCn1c(=O)c(C(=O)NCCCc2ccccc2)c(O)c2ccccc21 | 8.18 |
| Cc1cc(C(=O)Cn2cnc3ccccc3c2=O)c(C)n1C1CC1 | 22.6 |
| N#C/C(=C(/O)CSc1ccccc1C(=O)O)c1nc2ccccc2s1 | 15.8 |
| COc1ccc(CNC(=O)CCS(=O)(=O)c2ccc3c(c2)NC(=O)CS3)cc1 | -10.6 |
| COc1cc([C@H](Cc2ccccc2)NC(C)=O)oc(=O)c1 | -20.4 |

| SMILES | hERG current change (%, negative = inhibition) at 10uM [%] |
| --- | --- |
| COCCNC(=O)CC(c1ccccc1)c1ccccc1 | 0.834 |
| COc1cc2ccccc2cc1C(=O)NC(=S)Nc1cccc(C(=O)O)c1C | -4.09 |
| Cc1cccn2c(=O)c3cc(C#N)c(=O)n(-c4c(C)n(C)n(-c5ccccc5)c4=O)c3nc12 | -7.5 |
| CS(=O)(=O)c1ccc(C(=O)OC2CCOC2=O)cc1[N+](=O)[O-] (centres unmarked) | 6.5 |
| Cc1ccc(S(=O)(=O)N2CCC(C(=O)N(C)C3CCS(=O)(=O)C3)CC2)cc1 (centres unmarked) | -7.72 |
| COc1ccc(CCN2C(=O)C3C4C=CC(C4)C3C2=O)cc1OC (centres unmarked) | 4.59 |
| CCOc1c(C)cnc2c1c(=O)n(Cc1ccc(Cl)cc1)c(=O)n2C | -10.3 |
| COCCCNC(=S)N1CCCN(c2nc3cc(C)ccc3cc2C#N)CC1 | -13.6 |
| O=C(NCc1ccc(F)cc1)C1CCCN(S(=O)(=O)c2ccc(Br)s2)C1 (centres unmarked) | -15.7 |
| O=C(C1=C[C@@H](c2ccc(Br)cc2)C[C@@H](OCc2ccc(CO)cc2)O1)N1CCOCC1 | -31.5 |
| O=C(NNC(=O)C12CC3CC(CC(C3)C1)C2)c1ccccc1O | -0.306 |
| COCCNC(=O)CCc1nnc2ccc(N3CCC(C)CC3)nn12 | 21.8 |
| COc1ccc(C2=NOC(C(=O)Nc3cc(C)on3)C2)cc1OC (centres unmarked) | 1.39 |
| Cc1nc(-c2cccc(Cl)c2)n[nH]1 | -17.3 |
| COc1ccc(NC(=O)N2C3CCCC2CC(NC(=O)C2CC2)C3)cc1 (centres unmarked) | 21.9 |
| CC1(N2CCOCC2)CC2(O)C(=[N+]1[O-])CCc1nonc12 (centres unmarked) | 18.9 |
| CCOC(=O)C1=NN(C(=O)c2ccc(OC)cc2)C(O)(c2ccc(Cl)cc2)C1 (centres unmarked) | -75.5 |
| N#Cc1ccc(CSc2nnc(-c3ccccc3)n2Cc2ccco2)cc1 | -26.8 |
| CCOc1cc(/C=C(/C#N)C(=O)Nc2ccc(O)cc2)cc(Br)c1O | -14.3 |
| Cc1nn(CC(=O)N(C)C2CCS(=O)(=O)C2)c(C)c1S(=O)(=O)N(C)C (centres unmarked) | -1.04 |
| Cc1ccc(S(=O)(=O)N2CCN(C(=O)Cn3nc(C(=O)O)c4ccccc4c3=O)CC2)cc1 | 11.5 |
| CSCC[C@H](NC(=O)N1CCn2c1nc1ccccc12)C(=O)NCc1ccccc1 | -31.4 |
| O=C(c1cccc2ccccc12)C1CCCN(C(=O)CCN2CCCO2)C1 (centres unmarked) | -5.36 |
| COc1ccc(/C=C2/C(=O)N(Cc3ccccc3)N=C2C)cc1 | 2.7 |
| COc1ccc(CCN(Cc2cc3cc(C)ccc3[nH]c2=O)C(=O)N2CCCC2)cc1OC | -20.8 |
| Br.CN1C(c2ccc(F)cc2)=CS/C1=C(/C#N)c1nnc(N2CCOCC2)n1-c1ccccc1 | -23.8 |

— article PMC4336329 (PLoS ONE, 2015)
